The list shows a part of the results.
The sequences below were run against T1, MBP-FoxP1dN (Mus musculus, UniProt P58462 326-579) (assay: PD-seq (MBP pull-down with sequencing); 20 mM Tris-HCl pH 7.5, 100 mM NaCl, 1.5 mM MgCl2, 0.4 uM protein, 0.1 uM dsDNA library, 30 min, room temperature, amylose pull-down; high values mean tight binding). Conditions: protein: recombinant; tags: His6-MBP; chain copies: 2; dsDNA, one strand shown.
T1 sequence: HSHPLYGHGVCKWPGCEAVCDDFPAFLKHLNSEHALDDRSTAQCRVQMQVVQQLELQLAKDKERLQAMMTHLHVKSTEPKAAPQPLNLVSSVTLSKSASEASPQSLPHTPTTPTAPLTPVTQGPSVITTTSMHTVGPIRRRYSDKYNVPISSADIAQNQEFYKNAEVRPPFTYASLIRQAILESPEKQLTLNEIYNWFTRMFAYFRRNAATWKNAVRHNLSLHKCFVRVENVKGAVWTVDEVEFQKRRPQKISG
Summary of the method: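 A degenerate double-stranded DNA library, filled in with Klenow, was added at 0.1 µM to 0.4 µM His6-MBP-tagged mouse FoxP3 or FoxP1 fragment lacking the N-terminus, expressed in E. coli. Incubation lasted 30 min at room temperature in Tris pH 7.5 buffer with NaCl and MgCl2, after which complexes were collected on amylose resin, washed three times, digested with proteinase K to free the DNA, barcoded by PCR and sequenced by Illumina. Binding is the pooled-replicate reads-per-million enrichment of pull-down over input.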

| Sequence | binding signal |
| --- | --- |
| GATGATTGTTCTCCCAGCTGATGAATTTACGGGGTCGAGTAAACAAATTTTCCTAATCTTTCTGTTCAAGCGCCATCTAC | 0.972 RPM ratio (pull-down/input) |
| GATGATTGTTCTCCCAGCTGATGAATTCCTAATATCGAGTAAACAAATTTTCCTAATCTTTCTGTTCAAGCGCCATCTAC | 1.07 RPM ratio (pull-down/input) |
| GATGATTGTTCTCCCAGCTGATGAATTCCCGATGTCGAGTAAACAAATTTTCCTAATCTTTCTGTTCAAGCGCCATCTAC | 0.877 RPM ratio (pull-down/input) |
| GATGATTGTTCTCCCAGCTGATGAATTGACTTCATCGAGTAAACAAATTTTCCTAATCTTTCTGTTCAAGCGCCATCTAC | 1.04 RPM ratio (pull-down/input) |
| GATGATTGTTCTCCCAGCTGATGAATTCCTTAGTTCGAGTAAACAAATTTTCCTAATCTTTCTGTTCAAGCGCCATCTAC | 0.811 RPM ratio (pull-down/input) |
| GATGATTGTTCTCCCAGCTGATGAATTCTCCATGTCGAGTAAACAAATTTTCCTAATCTTTCTGTTCAAGCGCCATCTAC | 0.807 RPM ratio (pull-down/input) |
| GATGATTGTTCTCCCAGCTGATGAATTACTTCTTTCGAGTAAACAAATTTTCCTAATCTTTCTGTTCAAGCGCCATCTAC | 1.02 RPM ratio (pull-down/input) |
| GATGATTGTTCTCCCAGCTGATGAATTTGACTGTTCGAGTAAACAAATTTTCCTAATCTTTCTGTTCAAGCGCCATCTAC | 0.833 RPM ratio (pull-down/input) |
| GATGATTGTTCTCCCAGCTGATGAATTTGGGCTATCGAGTAAACAAATTTTCCTAATCTTTCTGTTCAAGCGCCATCTAC | 0.92 RPM ratio (pull-down/input) |
| GATGATTGTTCTCCCAGCTGATGAATTGGATAACTCGAGTAAACAAATTTTCCTAATCTTTCTGTTCAAGCGCCATCTAC | 0.879 RPM ratio (pull-down/input) |
| GATGATTGTTCTCCCAGCTGATGAATTTCTTAATTCGAGTAAACAAATTTTCCTAATCTTTCTGTTCAAGCGCCATCTAC | 1.04 RPM ratio (pull-down/input) |
| GATGATTGTTCTCCCAGCTGATGAATTCATACTATCGAGTAAACAAATTTTCCTAATCTTTCTGTTCAAGCGCCATCTAC | 1.06 RPM ratio (pull-down/input) |
| GATGATTGTTCTCCCAGCTGATGAATTTGCTAGATCGAGTAAACAAATTTTCCTAATCTTTCTGTTCAAGCGCCATCTAC | 1.01 RPM ratio (pull-down/input) |
| GATGATTGTTCTCCCAGCTGATGAATTTCTTCTGTCGAGTAAACAAATTTTCCTAATCTTTCTGTTCAAGCGCCATCTAC | 0.874 RPM ratio (pull-down/input) |
| GATGATTGTTCTCCCAGCTGATGAATTTGATGCGTCGAGTAAACAAATTTTCCTAATCTTTCTGTTCAAGCGCCATCTAC | 1.13 RPM ratio (pull-down/input) |
| GATGATTGTTCTCCCAGCTGATGAATTGTTATCCTCGAGTAAACAAATTTTCCTAATCTTTCTGTTCAAGCGCCATCTAC | 1.55 RPM ratio (pull-down/input) |
| GATGATTGTTCTCCCAGCTGATGAATTACTCCATTCGAGTAAACAAATTTTCCTAATCTTTCTGTTCAAGCGCCATCTAC | 1.12 RPM ratio (pull-down/input) |
| GATGATTGTTCTCCCAGCTGATGAATTCTTGGGATCGAGTAAACAAATTTTCCTAATCTTTCTGTTCAAGCGCCATCTAC | 0.77 RPM ratio (pull-down/input) |
| GATGATTGTTCTCCCAGCTGATGAATTTTGGCCGTCGAGTAAACAAATTTTCCTAATCTTTCTGTTCAAGCGCCATCTAC | 0.859 RPM ratio (pull-down/input) |
| GATGATTGTTCTCCCAGCTGATGAATTCATTTCTTCGAGTAAACAAATTTTCCTAATCTTTCTGTTCAAGCGCCATCTAC | 0.913 RPM ratio (pull-down/input) |
| GATGATTGTTCTCCCAGCTGATGAATTGATCACCTCGAGTAAACAAATTTTCCTAATCTTTCTGTTCAAGCGCCATCTAC | 0.971 RPM ratio (pull-down/input) |

| Sequence | binding signal |
| --- | --- |
| GATGATTGTTCTCCCAGCTGATGAATTCTACAGCTCGAGTAAACAAATTTTCCTAATCTTTCTGTTCAAGCGCCATCTAC | 0.835 RPM ratio (pull-down/input) |
| GATGATTGTTCTCCCAGCTGATGAATTAGCTTAGTCGAGTAAACAAATTTTCCTAATCTTTCTGTTCAAGCGCCATCTAC | 0.881 RPM ratio (pull-down/input) |
| GATGATTGTTCTCCCAGCTGATGAATTTTGGCCATCGAGTAAACAAATTTTCCTAATCTTTCTGTTCAAGCGCCATCTAC | 0.945 RPM ratio (pull-down/input) |
| GATGATTGTTCTCCCAGCTGATGAATTGTACAATTCGAGTAAACAAATTTTCCTAATCTTTCTGTTCAAGCGCCATCTAC | 1.08 RPM ratio (pull-down/input) |
| GATGATTGTTCTCCCAGCTGATGAATTCTCCCCTTCGAGTAAACAAATTTTCCTAATCTTTCTGTTCAAGCGCCATCTAC | 0.883 RPM ratio (pull-down/input) |
| GATGATTGTTCTCCCAGCTGATGAATTACCGCTATCGAGTAAACAAATTTTCCTAATCTTTCTGTTCAAGCGCCATCTAC | 1.1 RPM ratio (pull-down/input) |
| GATGATTGTTCTCCCAGCTGATGAATTCCCGGGATCGAGTAAACAAATTTTCCTAATCTTTCTGTTCAAGCGCCATCTAC | 0.785 RPM ratio (pull-down/input) |
| GATGATTGTTCTCCCAGCTGATGAATTGTCCGGCTCGAGTAAACAAATTTTCCTAATCTTTCTGTTCAAGCGCCATCTAC | 0.894 RPM ratio (pull-down/input) |
| GATGATTGTTCTCCCAGCTGATGAATTTTAATCATCGAGTAAACAAATTTTCCTAATCTTTCTGTTCAAGCGCCATCTAC | 1.06 RPM ratio (pull-down/input) |
| GATGATTGTTCTCCCAGCTGATGAATTGGCACAATCGAGTAAACAAATTTTCCTAATCTTTCTGTTCAAGCGCCATCTAC | 1.34 RPM ratio (pull-down/input) |
| GATGATTGTTCTCCCAGCTGATGAATTACCCAGATCGAGTAAACAAATTTTCCTAATCTTTCTGTTCAAGCGCCATCTAC | 0.925 RPM ratio (pull-down/input) |
| GATGATTGTTCTCCCAGCTGATGAATTCATATGTTCGAGTAAACAAATTTTCCTAATCTTTCTGTTCAAGCGCCATCTAC | 1.15 RPM ratio (pull-down/input) |
| GATGATTGTTCTCCCAGCTGATGAATTGTTCTCATCGAGTAAACAAATTTTCCTAATCTTTCTGTTCAAGCGCCATCTAC | 1.18 RPM ratio (pull-down/input) |
| GATGATTGTTCTCCCAGCTGATGAATTTGGGCGGTCGAGTAAACAAATTTTCCTAATCTTTCTGTTCAAGCGCCATCTAC | 0.774 RPM ratio (pull-down/input) |
| GATGATTGTTCTCCCAGCTGATGAATTTGCCTCCTCGAGTAAACAAATTTTCCTAATCTTTCTGTTCAAGCGCCATCTAC | 0.95 RPM ratio (pull-down/input) |
| GATGATTGTTCTCCCAGCTGATGAATTATTCACCTCGAGTAAACAAATTTTCCTAATCTTTCTGTTCAAGCGCCATCTAC | 1.02 RPM ratio (pull-down/input) |
| GATGATTGTTCTCCCAGCTGATGAATTGGGATATTCGAGTAAACAAATTTTCCTAATCTTTCTGTTCAAGCGCCATCTAC | 0.954 RPM ratio (pull-down/input) |
| GATGATTGTTCTCCCAGCTGATGAATTGTAGCATTCGAGTAAACAAATTTTCCTAATCTTTCTGTTCAAGCGCCATCTAC | 1.31 RPM ratio (pull-down/input) |
| GATGATTGTTCTCCCAGCTGATGAATTGAGGTAATCGAGTAAACAAATTTTCCTAATCTTTCTGTTCAAGCGCCATCTAC | 1.29 RPM ratio (pull-down/input) |
| GATGATTGTTCTCCCAGCTGATGAATTCACCTAGTCGAGTAAACAAATTTTCCTAATCTTTCTGTTCAAGCGCCATCTAC | 0.865 RPM ratio (pull-down/input) |
| GATGATTGTTCTCCCAGCTGATGAATTAACGCAATCGAGTAAACAAATTTTCCTAATCTTTCTGTTCAAGCGCCATCTAC | 1.33 RPM ratio (pull-down/input) |

| Sequence | binding signal |
| --- | --- |
| GATGATTGTTCTCCCAGCTGATGAATTGTAGATCTCGAGTAAACAAATTTTCCTAATCTTTCTGTTCAAGCGCCATCTAC | 0.889 RPM ratio (pull-down/input) |
| GATGATTGTTCTCCCAGCTGATGAATTAAGGGTTTCGAGTAAACAAATTTTCCTAATCTTTCTGTTCAAGCGCCATCTAC | 0.875 RPM ratio (pull-down/input) |
| GATGATTGTTCTCCCAGCTGATGAATTGTCACCGTCGAGTAAACAAATTTTCCTAATCTTTCTGTTCAAGCGCCATCTAC | 1.01 RPM ratio (pull-down/input) |
| GATGATTGTTCTCCCAGCTGATGAATTAATGTCTTCGAGTAAACAAATTTTCCTAATCTTTCTGTTCAAGCGCCATCTAC | 0.97 RPM ratio (pull-down/input) |
| GATGATTGTTCTCCCAGCTGATGAATTTATGGACTCGAGTAAACAAATTTTCCTAATCTTTCTGTTCAAGCGCCATCTAC | 0.992 RPM ratio (pull-down/input) |
| GATGATTGTTCTCCCAGCTGATGAATTATGGACCTCGAGTAAACAAATTTTCCTAATCTTTCTGTTCAAGCGCCATCTAC | 0.852 RPM ratio (pull-down/input) |
| GATGATTGTTCTCCCAGCTGATGAATTATCTAAATCGAGTAAACAAATTTTCCTAATCTTTCTGTTCAAGCGCCATCTAC | 1.18 RPM ratio (pull-down/input) |
| GATGATTGTTCTCCCAGCTGATGAATTGCGAGTTTCGAGTAAACAAATTTTCCTAATCTTTCTGTTCAAGCGCCATCTAC | 1.08 RPM ratio (pull-down/input) |
| GATGATTGTTCTCCCAGCTGATGAATTATGGGTGTCGAGTAAACAAATTTTCCTAATCTTTCTGTTCAAGCGCCATCTAC | 0.913 RPM ratio (pull-down/input) |
| GATGATTGTTCTCCCAGCTGATGAATTTAGTAGCTCGAGTAAACAAATTTTCCTAATCTTTCTGTTCAAGCGCCATCTAC | 0.946 RPM ratio (pull-down/input) |
| GATGATTGTTCTCCCAGCTGATGAATTGATTTAATCGAGTAAACAAATTTTCCTAATCTTTCTGTTCAAGCGCCATCTAC | 1.12 RPM ratio (pull-down/input) |
| GATGATTGTTCTCCCAGCTGATGAATTCATTGTTTCGAGTAAACAAATTTTCCTAATCTTTCTGTTCAAGCGCCATCTAC | 1.17 RPM ratio (pull-down/input) |
| GATGATTGTTCTCCCAGCTGATGAATTACCGCATTCGAGTAAACAAATTTTCCTAATCTTTCTGTTCAAGCGCCATCTAC | 1.19 RPM ratio (pull-down/input) |
| GATGATTGTTCTCCCAGCTGATGAATTTCGGTTGTCGAGTAAACAAATTTTCCTAATCTTTCTGTTCAAGCGCCATCTAC | 1.03 RPM ratio (pull-down/input) |
| GATGATTGTTCTCCCAGCTGATGAATTTGCGGGATCGAGTAAACAAATTTTCCTAATCTTTCTGTTCAAGCGCCATCTAC | 0.948 RPM ratio (pull-down/input) |
| GATGATTGTTCTCCCAGCTGATGAATTACCTGCGTCGAGTAAACAAATTTTCCTAATCTTTCTGTTCAAGCGCCATCTAC | 1.09 RPM ratio (pull-down/input) |
| GATGATTGTTCTCCCAGCTGATGAATTGCTATTATCGAGTAAACAAATTTTCCTAATCTTTCTGTTCAAGCGCCATCTAC | 1.8 RPM ratio (pull-down/input) |
| GATGATTGTTCTCCCAGCTGATGAATTCAAAACATCGAGTAAACAAATTTTCCTAATCTTTCTGTTCAAGCGCCATCTAC | 1.99 RPM ratio (pull-down/input) |
| GATGATTGTTCTCCCAGCTGATGAATTGACGCTTTCGAGTAAACAAATTTTCCTAATCTTTCTGTTCAAGCGCCATCTAC | 1.33 RPM ratio (pull-down/input) |
| GATGATTGTTCTCCCAGCTGATGAATTCCGTCCCTCGAGTAAACAAATTTTCCTAATCTTTCTGTTCAAGCGCCATCTAC | 0.782 RPM ratio (pull-down/input) |
| GATGATTGTTCTCCCAGCTGATGAATTGGTACTATCGAGTAAACAAATTTTCCTAATCTTTCTGTTCAAGCGCCATCTAC | 1.06 RPM ratio (pull-down/input) |
